Biological target: bovine factor Xa (Bos taurus, UniProt P00743)
Experiment: Inhibition of hydrolysis of S2222 by bovine Xa
Format: biochemical
Conditions: column fractions / pooled peak
Procedure: PPACK.2HCl [Boeringer/Calbiochem] […] Final concentration is 13 mM.
Factor Xa: In a one mL cuvette, 22.5 μM S2222 in Hepes/saline pH=7.4 was treated with 1-10 μL of the factor Xa preparation. The mixture was stirred briefly and the absorbance at 405 nm followed in a Cary 219 UV/visible spectrophotometer. The rate was taken for the initial linear phase. Similar methods were used for thrombin (S2238), plasmin (S2251) and tPA (S2238). Hemker, H. C. (1983) in Handbook of Synthetic Substrates: For the Coagulation and Fibrinolytic Systems. Martinus Nijhogg Publishers, Boston.

Substance	ability to inhibit the hydrolysis of S2222 by bovine Xa
Biotinyl-D-phenylalanyl-L-prolyl-L-arginine Chloromethyl Ketone [Biotinyl-PPACK]	positive
Biotinyl-ε-aminocaproyl-L-tyrosylglycyl-L-arginine chloromethyl ketone [BC-YGR-CK]	inhibited

Reference: patent US6242173A, “Immunoassays for catalytically-active, serine proteases” (University of Vermont and State Agriculatural College, priority 1992, dated 2001)
